Data published in PubChem BioAssay AID1030 (National Center for Advancing Translational Sciences (NCATS), 2008).
“And” between values parts separate entries of the source, which are not always exact repeats. Identical values can stand only once. Hit rate of the full screen: of about 220,000 compounds, about 16,000 (7.3%) were called active. This list was built around the results that the source calls inconclusive (neither active nor inactive); the mix of calls is not that of the screen. Calls come from the whole dose curve; as a rule, active = well fitted inhibition curve with a large enough effect (not every such curve was filed as active); inconclusive = small, poorly fitted or top-dose-only effect, or another doubt; inactive = no such curve, though single readings can be large or run the other way. Where the call is inconclusive, the potency comes from a doubtful curve fit.

These compounds were tested against Aldehyde dehydrogenase 1A1 (Homo sapiens) (UniProt P00352) (assay: qHTS Assay for Inhibitors of Aldehyde Dehydrogenase 1 (ALDH1A1)). Conditions: Purified ALDH1A1, NADH fluorescence, propionaldehyde substrate; series mostly up to 75.3 µM.
UniProt P00352, sequence (P00352 whole entry, looked up): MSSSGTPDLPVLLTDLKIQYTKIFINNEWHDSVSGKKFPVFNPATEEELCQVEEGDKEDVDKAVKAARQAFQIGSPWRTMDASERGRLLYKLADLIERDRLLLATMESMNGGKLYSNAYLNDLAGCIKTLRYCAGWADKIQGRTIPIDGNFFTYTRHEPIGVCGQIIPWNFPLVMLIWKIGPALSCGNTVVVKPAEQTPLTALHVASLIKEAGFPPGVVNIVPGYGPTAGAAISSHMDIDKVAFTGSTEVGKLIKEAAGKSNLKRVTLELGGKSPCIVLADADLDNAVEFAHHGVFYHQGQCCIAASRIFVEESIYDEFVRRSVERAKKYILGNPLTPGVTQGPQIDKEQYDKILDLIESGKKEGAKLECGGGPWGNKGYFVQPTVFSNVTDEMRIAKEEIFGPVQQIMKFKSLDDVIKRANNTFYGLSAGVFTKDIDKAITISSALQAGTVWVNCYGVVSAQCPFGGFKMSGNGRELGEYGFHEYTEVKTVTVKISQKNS
Potency is the fitted concentration of half-maximal effect; tags give direction and shape of the fitted curve.
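Throughout, for activity, negative = inhibition: plate controls were no enzyme wells and a reference inhibitor.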

SMILES	Potency	activity, negative = inhibition
COCCOC(=O)C1=C(N)OC(C)=C(C(=O)OC)C12C(=O)Nc1ccccc12 (configuration not stated)	inactive	
COc1ccc(C)cc1NC(=O)c1c(C)nn(Cc2ccccc2)c1Cl	inactive	
CN(C(=O)Cc1ccc(Cl)c(Cl)c1)C(CN1CCCC1)c1cccc(N=C=S)c1 (configuration not stated)	inconclusive: 35.5 µM [inhibitor, single point]	
Cc1cc(N2C(=O)C3CCCN3C2c2sccc2C)no1 (configuration not stated)	active: 1.58 µM	
Cc1nnc(SCc2nc3ccccc3c(=O)n2-c2ccccc2Cl)n1N	active: 25.1 µM	
CC1(C)CC(=O)C=C(NCCN2CCN(C(=O)Cc3ccc(Cl)cc3)CC2)C1	inconclusive: 39.8 µM [inhibitor, single point]	
C/C(=N\NC(=O)c1ccccc1O)c1c(O)n(Cc2ccccc2)c(=O)[nH]c1=O	inconclusive: 35.5 µM [inhibitor, single point]	
CCOC(=O)CC(SP(=S)(OC)OC)C(=O)OCC (configuration not stated)	inconclusive: 5.62 µM [inhibitor, full curve, poor fit]	
c1ccc(CNCCc2ccc3c(c2)OCO3)nc1	inactive	
Cc1ncc(CN2CCCC(C(=O)c3cccc(OC(C)C)c3)C2)s1 (configuration not stated)	inactive	
CCN(CC)CCNC(=O)c1nn(-c2ccc(C)cc2)c(=O)c2c1c1ccccc1n2C	inconclusive: 31.6 µM [inhibitor, partial curve]	
O=C(/C=C/c1c[nH]c2ccccc12)c1c(O)n(CCc2ccccc2)c(=O)[nH]c1=O	inconclusive: 20 µM [inhibitor, partial curve]	
NC[C@H](CC(=O)O)c1ccc(Cl)cc1	inactive	
Cc1cc(OCc2ccc([N+](=O)[O-])cc2)c2c3c(c(=O)oc2c1)CCCC3	active: 28.2 µM	
CCn1c(=O)cc(OCC(=O)N2CCC3(CC2)OCCO3)c2ccccc21	inactive	
CCCn1nc2ccccc2c1P(=O)(N1CCOCC1)N1CCOCC1	inactive	
Clc1ccccc1CN1CCN(c2ccccc2Cl)CC1	inconclusive: 37.7 µM [inhibitor, single point]	
COc1ccc(CNC(=O)c2ccc(C(C)C)cc2)cc1	inconclusive: 20 µM [inhibitor, partial curve]	
C=CCSSCC=C	active: 6.31 µM	
Nc1ccc(Br)cc1C(=O)c1ccccc1	inactive	
Cc1cccc(NC(=O)c2cccc(NS(=O)(=O)c3ccc(Cl)cc3)c2)c1	inconclusive: 17.8 µM [inhibitor, partial curve]	

SMILES	Potency	activity, negative = inhibition
Cc1ccccc1O	inactive	
COc1ccc(NC(=O)c2cc([N+](=O)[O-])ccc2N2CCNCC2)cc1	active: 8.91 µM	
CCOC(=O)C1(CCc2ccccc2)CCN(Cc2ccc3c(c2)OCCO3)CC1	inconclusive: 25.1 µM [inhibitor, single point]	
O=C(CNC(=O)c1cccs1)OCC(=O)c1ccc([N+](=O)[O-])cc1	active: 0.316 µM	
Cc1ccc(/C=C2/C(=O)NC(=O)N(CC3CCCO3)C2=O)s1 (configuration not stated)	active: 10 µM	
CN1CC(C(=O)c2ccc(Cl)cc2)C(c2ccc(N(C)C)cc2)C1 (configuration not stated)	active: 10 µM	
Cn1c(=O)c2[nH]cnc2n(C)c1=O.[CH2-][C@H](Cc1cccc2cc(C(=O)O)c(=O)oc12)OC.[Hg].[OH-]	active: 3.16 µM	
O=c1[nH]c(=O)n(Cc2ccccc2)c(O)c1C=NCCN1CCNCC1	active: 15.8 µM	
CN1CCN(c2ccc([N+](=O)[O-])c(Sc3ccccn3)c2)CC1	inconclusive: 25.1 µM [inhibitor, partial curve, poor fit]	
Cc1cc(Cl)ccc1OCCCC(=O)NCc1cccs1	inactive	
COc1ccccc1N1CCN(C2CCN(C(=O)c3cccs3)CC2)CC1	inconclusive: 39.8 µM [inhibitor, single point]	
CC(=O)c1cn(Cc2ccccc2C#N)c2ccccc12	active: 25.1 µM	
CCC(=O)c1ccc(OC(=O)N(C)c2ccccc2)cc1	inconclusive: 39.8 µM [inhibitor, single point]	
CN(C)CCCc1cccnc1		inactive: 2.01% [at 13.5 µM]
C=C(C)C(=O)OCC1CO1 (configuration not stated)	inconclusive: 31.6 µM [inhibitor, single point]	
c1ccc2c(c1)CC1CNCc3cccc(c31)S2 (configuration not stated)	inactive	
O=CN1CCCCC1C1CC[C@H]2CCCCN2C1 (some centres not stated)	inactive	
Cc1ncc([N+](=O)[O-])n1CCN=[N+]=[N-]		inactive: 9.19% [at 13.5 µM]
Cc1ccc(N2C(=O)NC(=O)/C(=C\c3ccc(N4CCOCC4)cc3)C2=O)cc1	active: 11.2 µM	
O=C(NC1CCCCCC1)c1ccc[nH]c1=S	inconclusive: 12.6 µM [inhibitor, partial curve]	
C/C(CC(=O)Nc1ccccn1)=N\NC(=O)Cc1cccc2ccccc12	inconclusive: 28.2 µM [inhibitor, single point]	

SMILES	Potency	activity, negative = inhibition
NC(=O)c1cc([N+](=O)[O-])cc([N+](=O)[O-])c1	inactive	
CCN1CCN(S(=O)(=O)c2cnc(Cl)c(Br)c2)CC1	active: 1.26 µM	
CC(C)n1c(=O)c(C=Nc2ccc(F)cc2)c(O)n(Cc2ccco2)c1=O	active: 11.2 µM	
CCCCCC1CC(CC#CCN2CCOCC2)C(=O)O1 (configuration not stated)	active: 6.31 µM	
c1ccc(-c2ccc(C(c3ccccc3)n3ccnc3)cc2)cc1 (configuration not stated)	active: 22.4 µM	
CCC(=O)Nc1ccc(N2CCN(CC)CC2)c(Cl)c1	inactive	
CC(=O)N1CCN(c2ccc([N+](=O)[O-])cc2C=C2C(=O)NC(=O)NC2=O)CC1	inactive	
Clc1ccc(Cl)c(Cl)c1	inactive	
Cn1c(O)c(C(c2ccccn2)c2c(O)n(C)c(=S)n(C)c2=O)c(=O)n(C)c1=S	inconclusive: 3.16 µM [inhibitor, partial curve, poor fit]	
Cc1sc2nc(COC(=O)Cc3ccccc3)[nH]c(=O)c2c1C	inconclusive: 20 µM [inhibitor, single point]	
CC(=O)O[C@H]1[C@H]2[C@@H](OC(=O)Cc3ccccc3)[C@@H](C)C[C@]2(OC(C)=O)C(=O)/C(C)=C/[C@@H]2[C@H](CC[C@@]13CO3)C2(C)C	inactive	
Nc1ccccc1O.O.O=C(O)[C@H]1[O][Sb][O][C@H]1C(=O)O	active: 3.16 µM	
Clc1cncc(N2CCNCC2)n1	inactive	
CCN(CC)c1ccc(C=C2C(=O)NC(=S)NC2=O)cc1	active: 0.112 µM	
COc1ccc(CNCC(=O)N2CCC3(CC2)OCCO3)cc1	inconclusive: 39.8 µM [inhibitor, single point]	
COc1ccc(C)cc1NC(=O)CN1CCN(CC(=O)Nc2ccccc2F)CC1	inconclusive: 25.1 µM [inhibitor, single point]	
CC[n+]1c(/C=C/N(C)c2ccccc2)sc2ccc(Cl)cc21	active: 15.8 µM	
COc1ccc(C(=O)Oc2cccc3cccnc23)cc1S(=O)(=O)N1CCOCC1	inconclusive: 28.2 µM [inhibitor, partial curve, poor fit]	
C=CCc1cc(C=C2C(=O)N(C)C(=O)N(C)C2=O)cc(OCC)c1OCc1ccccc1	active: 25.1 µM	
Nc1ccccc1-c1ccccc1	inconclusive: 39.8 µM [inhibitor, single point]	
CNC(C(=O)c1ccccc1)C(OC)c1ccccc1 (configuration not stated)	inconclusive: 39.8 µM [inhibitor, single point]	

SMILES	Potency	activity, negative = inhibition
CN1CCc2cc(O)cc3c2C1Cc1ccc(O)c(O)c1-3 (configuration not stated)	inconclusive: 28.2 µM [inhibitor, single point] and inconclusive: 34.4 µM [inhibitor, single point]	
COc1ccc(NC(=O)c2c(C)nn(Cc3ccccc3Cl)c2Cl)cc1Cl	inactive	
C[C@@H]1CC([C@H](O)CC2CC(=O)NC(=O)C2)C(=O)[C@@H](C)C1 (some centres not stated)	inactive	
C[C@@H]1Cc2c(Cl)cc(C(=O)N[C@@H](Cc3ccccc3)C(=O)O)c(O)c2C(=O)O1	inconclusive: 31.6 µM [inhibitor, partial curve]	
NC(CP(=O)(O)O)C(=O)O (configuration not stated)	inactive	
Cc1cccc(N2C(=O)/C(=C/c3ccc(N4CCN(C)CC4)o3)C(=O)NC2=S)c1C	active: 14.1 µM	
O=P1(Nc2ccc(F)cc2)COc2ccccc2OC1	inactive	
CCCCCCCC(=O)OCC(COC(=O)CCCCCCC)OC(=O)CCCCCCC	inconclusive: 28.2 µM [inhibitor, single point]	
O=c1[nH]c(=O)n(Cc2ccco2)c(O)c1/C=N/N1CCCCC1	inconclusive: 37.7 µM [inhibitor, single point]	
Cc1nc(N2CCN(Cc3ccccc3)CC2)nc2c1C(=O)CC(C)C2 (configuration not stated)	inconclusive: 20 µM [inhibitor, single point]	
Cc1ccc(/C=C2\C(=O)NC(=O)N(CCc3ccc(F)cc3)C2=O)s1	active: 1.58 µM	
CCN(CC)P(=O)(c1nccn1C)N(CC)CC	inactive	
ClCC(Br)CBr (configuration not stated)	inconclusive: 39.8 µM [inhibitor, single point]	
O=C(OCCCCN1C(=O)c2ccccc2C1=O)c1ccc(Br)o1	inconclusive: 39.8 µM [inhibitor, single point]	
CC1CCCN(C(=O)CCl)C1 (configuration not stated)	active: 0.631 µM	
CCOC(=O)C/C(C)=N/NC(=O)COc1ccccc1C	inconclusive: 39.8 µM [inhibitor, single point]	
CCCCCCCCC(=O)NCc1ccc(O)c(OC)c1	inactive	
O=c1oc2ccccc2c(O)c1C(c1ccc([N+](=O)[O-])cc1)c1c(O)c2ccccc2oc1=O	inconclusive: 35.5 µM [inhibitor, single point]	
O=c1cc(C(F)(F)F)c2cc3c4c(c2o1)CCCN4CCC3	inactive	
